{"source": "patent US10556936B2", "about": "“Immunogenic proteins and fragments thereof from allergenic mites” (ALK-ABELLÓ A/S, priority 2016, dated 2020)", "molecules": {"B1": {"name": "27 (protein, listed as Dermatophagoides pteronyssinus)", "chain": "SPTGWNIRTFEQFKIQFNKHYDSIEQEEHARENFLETLKYVDANPDKAVINEFADLSAEEFADGYLMSEESMQDSEQQLKLLRAGYDYHDDPECLFDENLEAPKQVDLRPDLSPIMRQTLHCGCCWAISPISSAESAYKARYNVSIQLSVQELVNCAVEHGCEIGKTAIAFNYLVTNGTTTQKAYPYTAKEGACNPPEKPRYTLENWCAYIDPSIKNKNKPDLRKVLAQKRTSITVQISIKNVKAFAHHNGSFIIRENSFPDEGKPSGHAINIVGYGTKDGVDYWIVRNSWSTGWGDKGYFYVERGVNWWGIEEYAFIATF"}, "B2": {"name": "A015: house dust mite protein; SEQ ID NO: 26 (Der f), 27 (Der p), 312 (Blo t) (protein)", "chain": "B1 chain"}}, "format_in_all_cases": "cell-based, human", "key": {"[1]": {"test_system": "HDM specific T-cell lines from HDM allergic donors", "assay": "T cell reactivity of protein: IL-5/IFNg FluoroSPOT or 72 h T cell proliferation in HDM specific T-cell lines (Example 2)", "details": "responding donors of tested HDM allergic donors", "text": "PBMCs from European HDM-allergic individuals were recruited in the Copenhagen region (defined by clinical history of allergy to house dust mite and specific IgE to group 1 and group 2 major allergens from Der p and/or Der f and with measured specific IgE (CAP) >0.7 kU/L towards Der p/f 1 or Der p/f 2. In addition, PBMCs from 10 US HDM-allergic individuals were recruited in San Diego (defined by Der p extract IgE titers greater than 0.35 kUA/L). PBMCs were isolated from whole blood by density gradient centrifugation according to manufacturers' instructions (Ficoll-Hypaque, Amersham Biosciences, Uppsala, Sweden). Der p- and Der f-specific extract IgE titers were determined using the ImmunoCAP system (Thermo Fisher, Uppsala, Sweden). […]\nT cells reactivity was determined by establishment of HDM specific T-cell lines according to standard methods. […] The responses to proteins having SEQ ID NOs 1-44 were assessed by IL-5/IFNg FluoroSPOT (Mabtech FS-0108-10) according manufacturer protocol, (after 2 weeks) or proliferation in a standard 72 h T cell proliferation assay, as described in Henmar H et al., Clin Exp Immunol 2008; 153(3):316-23. […]"}, "[2]": {"test_system": "basophils in whole blood from HDM allergic donors", "assay": "Basophil Activation Test (BAT)", "details": "blood from HDM allergic individuals (n=14)", "protocol": "Basophil Activation Test (BAT) was used as a predictive in vitro assay for indication of safety/immediate hypersensitivity reactions. The BAT assay is a widely used diagnostic test that is also used for evaluation of allergenicity of allergen derived components. In short: whole blood from HDM allergic donors was stimulated for 1 h with the proteins, and the increased expression of activation markers on the surface of basophils were measured by flow cytometry. The BAT test was carried out using different concentrations of the proteins and the allergens Der p 2 and Der p 1 was used as controls and tested in the same concentration rates.\n(§1) This example relates to the further testing of immunogenicity of the proteins identified in Example 1. Their ability to react with IgE antibodies in HDM allergic individuals, to stimulate in vitro T cell proliferation of HDM allergic individuals and non-allergics, and to stimulate ex vivo cytokine production of HDM allergic individuals and non-allergics. The following tests were used: • Basophil Activation Test (BAT) was used as a predictive in vitro assay for indication of safety/immediate hypersensitivity reactions. BAT test was carried out using blood from HDM allergic individuals (n=14), and by use of different concentrations of test proteins or the major house dust mite allergens (Der p 1, Der f 1, Der p 2 or Der f 2, e.g. a concentration of 1, 10, 100 or 1000 ng/ml. • In vitro T cell reactivity determined in T cell lines obtained from HDM allergic individuals (n=30) and non-allergics (n=8): Determined by establishment of HDM specific T-cell lines according to standard methods. In short, PMBCs from HDM allergic donors were cultured for 3 weeks in the presence of house dust mite allergen extract. The responses to proteins at a concentration of 0.5 ug/ml or 2 ug/ml of the test protein or the major house dust mite allergens (Der p 1, Der f 1, Der p 2 or Der f 2) were assessed by proliferation in a standard 72 h T cell proliferation assay, as described in Henmar H et al., Clin Exp Immunol 2008; 153(3):316-23. […]. • Ex vivo stimulation of PBMC cells obtained from mite allergic patients (n=16) and non-allergics (n=6): Determined by measuring the production of the cytokines; IFN-gamma, IL-9, IL-10, IL-17 and IL-31 following stimulation with test protein in concentration up to 10 ug/ml. Freshly isolated PBMC 5×10^6/ml were cultured with a test protein for 5 days and cell supernatant were harvested and stored at −80° C. Cytokines of the supernatants were measured using ProcartaPlex Multiplex Immunoassays with MAGPIX Multiplex Reader according manufactory protocol."}, "[3]": {"test_system": "T cell lines obtained from HDM allergic individuals and non-allergics", "assay": "In vitro T cell proliferation test in T cell lines (Example 3)", "details": "0.5 or 2 ug/ml, 72 h", "text": "This example relates to the further testing of immunogenicity of the proteins identified in Example 1. Their ability to react with IgE antibodies in HDM allergic individuals, to stimulate in vitro T cell proliferation of HDM allergic individuals and non-allergics, and to stimulate ex vivo cytokine production of HDM allergic individuals and non-allergics. The following tests were used: • Basophil Activation Test (BAT) was used as a predictive in vitro assay for indication of safety/immediate hypersensitivity reactions. […] T cell reactivity was. • Ex vivo stimulation of PBMC cells obtained from mite allergic patients (n=16) and non-allergics (n=6): Determined by measuring the production of the cytokines; IFN-gamma, IL-9, IL-10, IL-17 and IL-31 following stimulation with test protein in concentration up to 10 ug/ml. […] Cytokines of the supernatants were measured using ProcartaPlex Multiplex Immunoassays with MAGPIX Multiplex Reader according manufactory protocol."}, "[4]": {"test_system": "PBMC cells obtained from mite allergic patients and non-allergics", "assay": "Ex vivo stimulation of PBMC: cytokine production (IFN-gamma, IL-9, IL-10, IL-17, IL-31)", "text": "as §1"}}}
{"molecule": "B1", "values": [{"measurement": "% T cell responding donors to protein", "setting": "[1]", "value": "1 of 24"}]}
{"molecule": "B2", "values": [{"measurement": "# of individuals of 14 with positive BAT test", "setting": "[2]; 1 ng/ml", "value": 0}, {"measurement": "# of individuals of 14 with positive BAT test", "setting": "[2]; 10 ng/ml", "value": 0}, {"measurement": "# of individuals of 14 with positive BAT test", "setting": "[2]; 100 ng/ml", "value": 0}, {"measurement": "# of individuals of 14 with positive BAT test", "setting": "[2]; 1000 ng/ml", "value": 0}, {"measurement": "% responders of in-vitro T cell proliferation test, Allergic", "setting": "[3]; T cell lines from HDM allergic individuals (n=30)", "value": 4, "unit": "%"}, {"measurement": "% responders of in-vitro T cell proliferation test, Non-allergics", "setting": "[3]; T cell lines from non-allergics (n=8)", "value": 0, "unit": "%"}, {"measurement": "% HDM allergic individuals with cytokine production in ex-vivo T cell assay IL-5", "setting": "[4]; HDM allergic individuals, IL-5", "value": 6, "unit": "%"}, {"measurement": "% HDM allergic individuals with cytokine production in ex-vivo T cell assay IL-9", "setting": "[4]; HDM allergic individuals, IL-9", "value": 0, "unit": "%"}, {"measurement": "% HDM allergic individuals with cytokine production in ex-vivo T cell assay IL-10", "setting": "[4]; HDM allergic individuals, IL-10", "value": 75, "unit": "%"}, {"measurement": "% HDM allergic individuals with cytokine production in ex-vivo T cell assay IL-13", "setting": "[4]; HDM allergic individuals, IL-13", "value": 6, "unit": "%"}, {"measurement": "% HDM allergic individuals with cytokine production in ex-vivo T cell assay IL-17", "setting": "[4]; HDM allergic individuals, IL-17", "value": 44, "unit": "%"}, {"measurement": "% HDM allergic individuals with cytokine production in ex-vivo T cell assay IL-31", "setting": "[4]; HDM allergic individuals, IL-31", "value": 6, "unit": "%"}, {"measurement": "% HDM allergic individuals with cytokine production in ex-vivo T cell assay INF-g", "setting": "[4]; HDM allergic individuals, INF-g", "value": 25, "unit": "%"}, {"measurement": "% non-allergic individuals with cytokine production in ex-vivo T cell assay IL-5", "setting": "[4]; non-allergic individuals, IL-5", "value": 0, "unit": "%"}, {"measurement": "% non-allergic individuals with cytokine production in ex-vivo T cell assay IL-9", "setting": "[4]; non-allergic individuals, IL-9", "value": 0, "unit": "%"}, {"measurement": "% non-allergic individuals with cytokine production in ex-vivo T cell assay IL-10", "setting": "[4]; non-allergic individuals, IL-10", "value": 67, "unit": "%"}, {"measurement": "% non-allergic individuals with cytokine production in ex-vivo T cell assay IL-13", "setting": "[4]; non-allergic individuals, IL-13", "value": 0, "unit": "%"}, {"measurement": "% non-allergic individuals with cytokine production in ex-vivo T cell assay IL-17", "setting": "[4]; non-allergic individuals, IL-17", "value": 50, "unit": "%"}, {"measurement": "% non-allergic individuals with cytokine production in ex-vivo T cell assay IL-31", "setting": "[4]; non-allergic individuals, IL-31", "value": 0, "unit": "%"}, {"measurement": "% non-allergic individuals with cytokine production in ex-vivo T cell assay INF-g", "setting": "[4]; non-allergic individuals, INF-g", "value": 33, "unit": "%"}]}
